The campaign covered roughly 52,000 compounds. About 1,700 (3.3%) were called active. Cut-off read from the data, not from the text of the source: active = survival mostly below about 52% (no sharp cut-off); inactive = mostly above about 56%. The list shows a part of the results.

In this experiment the test system is Wild type. Briefly: S. aureus survival, RN4220 and DeltatarO strains – OD600, teichoic acid synthesis inhibitors, primary screen (AID 463173). As to conditions: S. aureus RN4220 wild type/DeltatarO growth, OD600, 18 h, active compounds read low, screened at 18.75 µg/mL (by protocol).
For the molecule `COc1cc(C(=O)OCc2cc(=O)n3ccsc3n2)cc(OC)c1OC`, the survival was active: -4%. The value for `Oc1ccc(NC(=S)Nc2ccc(O)cc2)cc1` was inactive: 106%; that for `CCOc1cc(-c2cc(C(=O)O)c3c(-c4ccccc4)[nH]nc3n2)ccc1O` was inactive: 61%; that for `COc1ccc(S(=O)(=O)NCC(c2ccco2)S(=O)(=O)c2cccs2)cc1OC` (configuration not stated) was inactive: 79%. Regarding `Cc1ccc(NC(=O)N(Cc2c[nH]c3ccccc23)C2CCCCCC2)cc1C`, the survival is inactive: 54%. The same measure for `O=c1n(Cc2ccc([N+](=O)[O-])cc2)c2ccccc2c2nc(-c3ccccc3)nn12`: inactive: 152%; for `COc1ccc(CCNC(=O)Cc2c(C)c3ccc(O)c(C)c3oc2=O)cc1OC`: inactive: 79%; for `O=C(OCCN1CCOCC1)c1ccccc1`: inactive: 110%. The value for `CCOc1ccc(NC(=O)c2cccc3c(=O)c4c([nH]c23)CCCC4)cc1` was inactive: 79%; that for `Cc1ccc(Cn2cnc3nc4c(cc3c2=O)CCCC4)cc1` was inactive: 55%. The value for `Cc1cc(C)cc(-n2c(SCC(=O)Nc3ccccc3F)nc3c(oc4ccccc43)c2=O)c1` was inactive: 82%; that for `Cc1c(NC(=O)Nc2ccccc2C(F)(F)F)c(=O)n(-c2ccccc2)n1C` was inactive: 76%; that for `CCOc1ccc(C2=C(C(C)=O)Sc3nnc(C)n3N2C(C)=O)cc1` was inactive: 69%.

As to `Cn1c(=O)n(C)c2cc(CNCc3ccc(F)cc3)ccc21`, the survival is inactive: 86%. Regarding `Cc1ccc(C(=O)N2CCc3cc(CNC(=O)c4ccccc4F)ccc32)cc1`, the survival was inactive: 73%. For the molecule `COc1ccc(CCNC(=O)CCN2N=C(c3ccccc3)CCC2=O)cc1OC`, the survival is inactive: 72%.

With `O=C(CS(=O)(=O)c1ccc(Cl)cc1)Nc1nc2ccc(Br)cc2s1`, the survival is inactive: 53%. For the molecule `CCc1ccc(NC(=O)C2(c3cccs3)CCOCC2)cc1`, the survival is inactive: 73%.

Turning to `Cc1oc2ncn(CC(C)C)c(=O)c2c1C(=O)N1CCN(c2ccccc2F)CC1`, the survival was inactive: 63%. The value for `Cc1cc(C)c(NC(=O)CN(c2ccccc2)S(=O)(=O)N(C)C)c(C)c1` was inactive: 78%; that for `OC1CCNC(=S)N1c1ccccc1` (configuration not stated) was inactive: 97%.

As to `O=C(Nc1ccc2oc(-c3ccc4ccccc4c3)nc2c1)c1cccc(Cl)c1Cl`, the survival is inactive: 78%. The value for `CSc1ccc(CCNC(=O)CN2C(=O)COc3ccc(S(=O)(=O)N4CCCC4)cc32)cc1` was inactive: 122%; that for `CCOc1ccc(NC(=O)c2cnn3c2NC(c2ccccc2)=CC3c2cccc(OC)c2OC)cc1` (configuration not stated) was inactive: 85%.

As to `Clc1ccc(-c2nnn3c2nc(N2CCCCC2)c2ccccc23)cc1`, the survival was inactive: 45%. Take `COC(=O)c1sc2cccc(F)c2c1S(=O)(=O)NCc1ccc(F)cc1`: the survival was inactive: 101%.

As to `COc1ccc(C2CC(=O)N(Cc3cccc(C)c3)c3c2c(C)nn3-c2nc(C)cc(C)n2)c(OC)c1` (configuration not stated), the survival is inactive: 89%. As for `Cc1ccccc1-n1c(=O)c2ccccc2n(Cc2ccc(F)cc2)c1=O`, the survival was inactive: 87%.

As to `CCOC(=O)c1cnc2c(Cl)c(Cl)ccc2c1Nc1ccc(N(C)C)cc1`, the survival was inactive: 80%. The same measure for `O=C(Nc1ccc(F)cc1)c1ncn(-c2ccccc2)n1`: inactive: 81%; for `Fc1cccc(F)c1CSc1nc2ccccc2[nH]1`: inactive: 112%. The value for `COc1ccc(-n2c(=O)c3c4c(sc3n(Cc3c(F)cccc3Cl)c2=O)CN(C(C)=O)CC4)cc1OC` was inactive: 73%. The same measure for `CCOC(=O)c1ccccc1NC(=O)CN(c1cc(C(F)(F)F)ccc1Cl)S(C)(=O)=O`: inactive: 74%. For `Cc1ccc(-c2noc(CN(C(=O)c3ccc(C(C)(C)C)cc3)C(C)C)n2)cc1`, the survival was active: -1%. `COc1ccc(N2CCN(CC(=O)N(C)C)CC2)cc1`: the survival is inactive: 96%. For `O=S(=O)(c1ccccc1)n1nc(-c2ccc(Cl)cc2)nc1NCc1ccc(F)cc1`, the survival is inactive: 53%.

`COc1cccc(NC(=O)Cn2c(=O)c3cccn3c3ccc(F)cc32)c1`: the survival was inactive: 77%. As to `O=C(Cn1ccc2cc(S(=O)(=O)N3CCCCCC3)ccc21)NCCc1ccccc1Cl`, the survival is inactive: 72%. Regarding `Cc1ccc(CCNC(=O)CCS(=O)(=O)c2ccc3c(c2)oc(=O)n3C)cc1`, the survival was inactive: 91%. The value for `COc1cccc(N2CCN(S(=O)(=O)c3ccc(-c4cc(C(F)(F)F)on4)s3)CC2)c1` was inactive: 78%. The value for `CCCCSCCCNC(=O)c1cn(CC)c2ccc(S(=O)(=O)N(C)C3CCCCC3)cc2c1=O` was inactive: 35%; that for `COc1cccc(-c2nc(SCC(=O)NCc3ccccc3)c3c(=O)n(C)c(=O)n(C)c3n2)c1` was inactive: 95%.

With `Cc1noc(NS(=O)(=O)c2ccc(NC(=O)COc3ccccc3Br)cc2)c1C`, the survival was inactive: 74%.

For `CCOc1ccccc1NC(=O)Nc1ccccc1OCc1cc(=O)n2ccccc2n1`, the survival was inactive: 78%. Take `COc1cc(Cl)c(C)cc1NC(=O)Cn1cnc2sc(C)c(S(=O)(=O)N3CCCCC3)c2c1=O`: the survival is inactive: 136%. The same measure for `CCOC(=O)c1scc(-c2ccc(C)cc2)c1S(=O)(=O)Nc1cc(C)ccc1C`: inactive: 72%; for `Cc1ccc(CCNC(=O)c2ccc(CS(=O)(=O)Cc3ccc(Cl)cc3)o2)cc1`: inactive: 72%. The same measure for `CN(CC(=O)NCc1ccc(Cl)cc1)S(=O)(=O)c1ccc2c(c1)c(=O)n(C)c(=O)n2C`: inactive: 81%; for `CCOc1ccccc1NC(=O)Cn1c(=O)n(-c2ccc(C)c(C)c2)c(=O)c2c(C)c(C(=O)N(C)C)sc21`: inactive: 124%; for `CCS(=O)(=O)c1c(S(=O)(=O)CC)c2cc(C(C)(C)C)ccn2c1C(=O)c1ccc(F)cc1`: inactive: 85%. The same measure for `Cc1cc2c(cc1C)NC(CC(=O)Nc1cccc(C)c1C)C(=O)N2` (configuration not stated): inactive: 90%; for `Cc1nc2ccccc2c2nc(N)nn12`: inactive: 113%.

Consider `O=C(NCc1ccc(Cl)cc1)C(=O)NCC(c1cccnc1)N1CCN(c2ccccc2)CC1` (configuration not stated), for which the survival was inactive: 77%.

Turning to `CC(Nc1ncnc2c1cnn2-c1cccc(Cl)c1)c1ccccc1` (configuration not stated), the survival is inactive: 130%.

As for `COc1cccc(-c2nnc(SCC(=O)N3CCc4ccccc43)o2)c1`, the survival is inactive: 69%. The value for `CC(OC(=O)c1cccs1)C(=O)NCC1CCCO1` (configuration not stated) was inactive: 105%. The same measure for `CCN(c1ccc(C)cc1C)S(=O)(=O)c1nnc(NC(=O)c2ccc(F)cc2)s1`: inactive: 20%.
